The record followed here is the supplement of paper PMC12632987.

B1: GBRAP_80_6825 (protein)
chain: MEERLEKVLEEIEKIDKEIAEIVREIVELARALGVPLEVLLRYAEAILELAKKDKEKALELAKRTLEEVRELAARGDREGVLAVLAEAESDALLEVEELE
B2: GBRAP_26_5439 (protein)
chain: IEEVEREAIERIAEVAAKIGDPEKAAAALAEAITLLHEFVERAEEEDLSEEELEELAEELVEELREFLEDLGLSEELRRELVETFREALRRIREALLKER
B3: GBRAP_74_6519 (protein)
chain: EEELLAALEAAAAAGDAATAVALARRIVAEGSLEAVERAARIMVAFVERHADALSPEELEAVADALAELADELMLRGGDSEVVLAVARAAVALEERRRAL
B4: GBRAP_35_5621 (protein)
chain: GSAEEVLEDALDVLEDAVEALETEDKKTMAEALVKVAEAFVEIAEEEKDEVEKAPEYLKKAIELLERALEILKKYPELEEYAKRVEELKKRLEKLLKELK
B5: GBRAP_52_6260 (protein)
chain: MRERLRALVEEILELVKAGRLEEARALATELAETFNEEELEIFIEEAAELARRSSKEEVEDLIRMAELVAEALEEAGRPEELVSLFEARVYGAIYETEKR
B6: GBRAP_160_4172 (protein)
chain: SETLEEAEKEITEIFDEAVEMMKGQTAAERAAIARVAFGEIILLLEEKGLLTDELDEHIDEVEDEVVTTILANPDLTDEELEALFTEAREKIIEALKKSS
B7: GBRAP_52_6146 (protein)
chain: KVEEFEKLLLEAVKAKKEGKEEEKEKLIKEAAELAKEMTEEEIEEAVERAVKKLKKEDLDAFMEVAIELAEEMLKAGMDERKASTFLGAAARAAYKKELE
B8: GBRAP_11_2672 (protein)
chain: MKEILEKAAELAEEAAELVEKLIKEGTDNEELLKELEEKIKELEELAKKHLSKALQSDVEVAKELFEELKADKENAEQYAKELLAALRVLAGNLLLEADE
B9: GBRAP_11_2899 (protein)
chain: EKEKLEKLAKLLKEAIKLLKKILKEGTDDKELLEKALKVAEEALKLAKEVMDESTVELAEEAVKLLKEAKKDPKNAEKYIQQALATAQVLLGQVLLKIEE
B10: GBRAP_35_5598 (protein)
chain: DIDELAVESTIDMIEATIEGIPELPVEELARISRLLIRDVRELIKREKNNLEALKRLAEALKKLLEAIKKHHGDNPEMQKVAEEIEKAIKEAEKVAKEIE
B11: GBRAP_35_5587 (protein)
chain: EDEELILEELEDQAEATLWALKEEDDETALAMLKAFIDFARRAIEDLKDNKEALEKILELIKKVIEAVKKYRSDNPEFQELLKELEELAKEAEELIKKNK
B12: GBRAP_11_2638 (protein)
chain: KKEKYEEAAKLAKEAIKLLEKLLKEGVDNEELLKEIKKLLEELKKLIESIDDEALKKEVEIAEELLKEAEEDKENREEYIKNLKAALEVLKAELEEKIEE
B13: GBRAP_166_4892 (protein)
chain: ATEEAIKQIKAIADDTIKNIANLTEEQILESFVDIAEIVDEAGATPELIETAAKQTAEIVEEGVKAGFDRDTLESLALAAFGDNEELLDTLEKELEALKK
B14: GBRAP_137_3663 (protein)
chain: KKINVNVELDGDFAEITIKAEDKELAEEAEDIAIEVAKETGVAYAISLDLENKEVYVDLLGPREKLEEFIKKFLEKLSEKADVNFTLKENGKETKEYLKK
B15: GBRAP_11_2803 (protein)
chain: KKEELKKIAELAKKLAEAVKKLIKEGVDNEELLKKIEELLKKLEELVKKYGDEGLKKLAEIAKELLKEAKEDPENKEEYLKQLLATARVLEGNVLLEIEE
B16: GBRAP_78_6729 (protein)
chain: ELKELLEKAIEVTSEAAKLAVKEASNEVIAEIVDALSYLEEALELVEEGGEKEEILKKLEEAEKHIKEAIKLLPENLKEIRKKLEKALELVKKAIKKVKE
B17: GBRAP_42_5722 (protein)
chain: MYLVHLEVVVNTKEELEEAIKIWEKKNKKYEEEKNIIIHLEIAAPEEAEELAKEAEKKSEELAKKATKELDWVVVAASADEVEEAIEIAVDLALEEIKEE
B18: GBRAP_128_3420 (protein)
chain: SMEEKVEEVRRLLEEMLTADEETQKELADRIFELMLESDLETAEAMAEVILEMLPEFTAEQLDILADAGRKRLSEFSPEKQELVADVIVEALNLAEELEE
B19: GBRAP_11_2619 (protein)
chain: KKETLEKLRDLAEEAAAAVAELLARGVDDAELRARIRELLKELRELTEKHSSEADKKDVEIAEELFEEALADAENAEAYFQQLLAALRVLAGNYLLDIEE

In all, about 4,500 sequences were measured (“median log2 fold change of GCK-ALFA target abundance (FLAG IP / Myc IP barcode read proportion)”: median about 0.078, lowest 2% from about -0.6 on). The list shows a part of the results.

In this experiment the target is GABARAP, O95166. In words: median log2 fold change of GCK-ALFA target abundance (FLAG IP / Myc IP barcode read proportion) (log2 ratio); each designed protein is fused to an ALFA-tag nanobody in HEK293 cells to bring the named protein to FLAG-tagged glucokinase (GCK); Myc marks an untargeted standard; higher = target protein stabilised (more abundant). The following applies: target protein: 3xFLAG-MCP-GCK-ALFA reporter; HEK293 landing pad (RPLP). The procedure, abridged: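 Binders fused to an ALFA nanobody were recombined as a library into HEK293 landing-pad cells, which were induced with 2 μg mL^−1 doxycycline and then transfected to express a FLAG-tagged target and a Myc-tagged standard. After 48 h, circular RNA barcodes recovered by anti-FLAG and anti-Myc immunoprecipitation of lysates were reverse transcribed, amplified and sequenced. Each binder's target abundance is the median log2 ratio of FLAG to Myc barcode read proportions, from barcodes present at ≥10^−7 in both replicates, binders carrying ≥3 barcodes per replicate, a 10^−6 pseudocount and pooled replicates.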
Chain of GABARAP, O95166 (O95166 whole entry, the tested form may be a part): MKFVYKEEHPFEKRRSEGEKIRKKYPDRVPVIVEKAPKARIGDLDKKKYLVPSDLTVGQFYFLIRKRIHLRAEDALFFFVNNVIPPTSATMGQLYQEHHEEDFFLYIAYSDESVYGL
With B1, the “median log2 fold change” value came out at 0.188.

As for B2, the “median log2 fold change” value was -0.364.

Regarding B3, the “median log2 fold change” value is -0.0734.

As to B4, the “median log2 fold change” value is -0.0306.

For B5, the “median log2 fold change” value is -0.0461.

Consider B6, for which the “median log2 fold change” value was -0.144.

With B7, the “median log2 fold change” value is -0.0268.

Consider B8, for which the “median log2 fold change” value was found to be 0.186.

For the molecule B9, the “median log2 fold change” value is -0.152.

As to B10, the “median log2 fold change” value amounted to 0.0148.

Turning to B11, the “median log2 fold change” value was found to be 0.0805.

With B12, the “median log2 fold change” value was found to be 0.156.

Regarding B13, the “median log2 fold change” value worked out at 0.114.

In the case of B14, the “median log2 fold change” value worked out at 0.0963.

B15: the “median log2 fold change” value was -0.0158.

Regarding B16, the “median log2 fold change” value is -0.277.

For B17, the “median log2 fold change” value is -0.0173.

On to B18, for which the “median log2 fold change” value is -0.2.

For the molecule B19, the “median log2 fold change” value was 0.0253.
